Data from the antibiotic and cytotoxicity screens of Wong et al. (2023).
The other results are listed elsewhere or left out.

Legend:
HSkMC = human skeletal muscle cells; assay: cytotoxicity call (relative viability < 0.9); conditions: 10 µM
HepG2 = assay: cytotoxicity call (relative viability < 0.9); conditions: 10 µM
S. aureus RN4220 = assay: growth inhibition call (relative growth <= 0.2); conditions: 50 µM

## C[C@@H]1CCCCO[C@@H](CN(C)S(=O)(=O)c2ccc(F)cc2)[C@H](C)CN([C@H](C)CO)C(=O)c2cc(NS(C)(=O)=O)ccc2O1
HSkMC
  cytotoxicity call: inactive
HepG2
  cytotoxicity call: inactive
S. aureus RN4220
  growth inhibition call: inactive

## COc1ccc(S(=O)(=O)Nc2ccc3c(c2)CC(=O)N([C@H](C)CO)C[C@@H](C)[C@@H](CN(C)S(C)(=O)=O)O3)cc1
HSkMC
  cytotoxicity call: inactive
HepG2
  cytotoxicity call: inactive
S. aureus RN4220
  growth inhibition call: inactive

## C[C@@H]1CCCCO[C@@H](CN(C)C(=O)c2ccccc2)[C@@H](C)CN([C@H](C)CO)C(=O)c2cc(NC(=O)Nc3ccccc3)ccc2O1
HSkMC
  cytotoxicity call: inactive
HepG2
  cytotoxicity call: inactive
S. aureus RN4220
  growth inhibition call: inactive

## C=CC[C@H](CC(=O)NCCO)C(=O)N[C@@H](COC(=O)[C@H](CC=C)CC(=O)OC(C)(C)C)Cc1c[nH]c2ccccc12
HSkMC
  cytotoxicity call: inactive
HepG2
  cytotoxicity call: inactive
S. aureus RN4220
  growth inhibition call: inactive

## C[C@@H]1CCCCO[C@H](CN(C)S(=O)(=O)c2ccc(Cl)cc2)[C@H](C)CN([C@@H](C)CO)C(=O)c2cc(NS(=O)(=O)c3ccccc3)ccc2O1
HSkMC
  cytotoxicity call: inactive
HepG2
  cytotoxicity call: inactive
S. aureus RN4220
  growth inhibition call: inactive

## Cc1noc(C)c1S(=O)(=O)Nc1ccc2c(c1)CC(=O)N([C@@H](C)CO)C[C@H](C)[C@H](CN(C)Cc1ccc(C(=O)O)cc1)O2
HSkMC
  cytotoxicity call: inactive
HepG2
  cytotoxicity call: inactive
S. aureus RN4220
  growth inhibition call: inactive

## C[C@@H]1CN([C@@H](C)CO)C(=O)Cc2cc(NC(=O)Cn3cnnn3)ccc2O[C@H]1CN(C)Cc1ccc(Oc2ccccc2)cc1
HSkMC
  cytotoxicity call: inactive
HepG2
  cytotoxicity call: inactive
S. aureus RN4220
  growth inhibition call: inactive

## CCNC(=O)NC(=O)COC(=O)CNC(=O)COc1ccccc1
HSkMC
  cytotoxicity call: inactive
HepG2
  cytotoxicity call: inactive
S. aureus RN4220
  growth inhibition call: inactive

## O=C(CC1CC1)NCc1cnc2n1CCNCC2
HSkMC
  cytotoxicity call: inactive
HepG2
  cytotoxicity call: inactive
S. aureus RN4220
  growth inhibition call: inactive

## C[C@@H]1CN([C@H](C)CO)C(=O)c2cc(NC(=O)Cc3cn(C)c4ccccc34)ccc2O[C@@H]1CN(C)Cc1ccc(-c2ccccc2)cc1
HSkMC
  cytotoxicity call: inactive
HepG2
  cytotoxicity call: inactive
S. aureus RN4220
  growth inhibition call: inactive

## Cc1ccc(-c2cnc3c(c2)C(=O)N([C@@H](C)CO)C[C@H](C)[C@@H](CN(C)C(=O)Cc2cccnc2)O3)cc1
HSkMC
  cytotoxicity call: inactive
HepG2
  cytotoxicity call: inactive
S. aureus RN4220
  growth inhibition call: inactive

## COc1ccc(NC(=O)Nc2ccc3c(c2)C(=O)N([C@@H](C)CO)C[C@H](C)[C@@H](CN(C)S(=O)(=O)c2ccc(C)cc2)OCCCC[C@H](C)O3)cc1
HSkMC
  cytotoxicity call: inactive
HepG2
  cytotoxicity call: inactive
S. aureus RN4220
  growth inhibition call: inactive

## Cc1noc(C)c1NC(=O)Nc1ccc2c(c1)CC(=O)N([C@H](C)CO)C[C@@H](C)[C@@H](CN(C)S(=O)(=O)c1ccccc1)O2
HSkMC
  cytotoxicity call: inactive
HepG2
  cytotoxicity call: inactive
S. aureus RN4220
  growth inhibition call: inactive

## N#C/C(=N\O)C(=O)c1ccco1
HSkMC
  cytotoxicity call: inactive
HepG2
  cytotoxicity call: inactive
S. aureus RN4220
  growth inhibition call: inactive

## C[C@@H]1CN([C@@H](C)CO)C(=O)c2cc(NS(=O)(=O)c3ccccc3)ccc2O[C@H]1CN(C)Cc1ccncc1
HSkMC
  cytotoxicity call: inactive
HepG2
  cytotoxicity call: inactive
S. aureus RN4220
  growth inhibition call: inactive

## C[C@@H]1CN([C@@H](C)CO)C(=O)c2c(c3ccccc3n2C)-c2ccccc2CO[C@H]1CN(C)Cc1ccccc1
HSkMC
  cytotoxicity call: inactive
HepG2
  cytotoxicity call: active
S. aureus RN4220
  growth inhibition call: inactive

## C[C@@H]1CCCCO[C@@H](CN(C)C(=O)Nc2ccc(F)cc2)[C@H](C)CN([C@@H](C)CO)C(=O)c2cc(NC(=O)Nc3cccc4ccccc34)ccc2O1
HSkMC
  cytotoxicity call: inactive
HepG2
  cytotoxicity call: inactive
S. aureus RN4220
  growth inhibition call: inactive

## COCCOC(=O)N1C(=O)[C@@]2(c3cc(C#CCCO)ccc31)[C@H](c1ccccc1OCCO)N1[C@H](c3ccccc3)[C@H](c3ccccc3)OC(=O)[C@H]1[C@@H]2C(=O)Nc1nc2ccccc2s1
HSkMC
  cytotoxicity call: inactive
HepG2
  cytotoxicity call: inactive
S. aureus RN4220
  growth inhibition call: inactive

## C[C@H]1CN([C@@H](C)CO)C(=O)Cc2cc(NC(=O)Cn3cnnn3)ccc2O[C@H]1CN(C)S(=O)(=O)c1ccccc1
HSkMC
  cytotoxicity call: inactive
HepG2
  cytotoxicity call: inactive
S. aureus RN4220
  growth inhibition call: inactive

## COCCN1C(=O)CO[C@H]2CN(S(=O)(=O)c3ccccc3)C[C@@H]21
HSkMC
  cytotoxicity call: inactive
HepG2
  cytotoxicity call: inactive
S. aureus RN4220
  growth inhibition call: inactive

## C[C@@H]1CN([C@H](C)CO)C(=O)c2cc(NS(=O)(=O)c3cccs3)ccc2O[C@@H](C)CCCCO[C@H]1CN(C)S(=O)(=O)c1ccc(Cl)cc1
HSkMC
  cytotoxicity call: inactive
HepG2
  cytotoxicity call: inactive
S. aureus RN4220
  growth inhibition call: inactive

## Cc1ccc(S(=O)(=O)N(C)C[C@@H]2Oc3ncc(Br)cc3C(=O)N([C@@H](C)CO)C[C@H]2C)cc1
HSkMC
  cytotoxicity call: inactive
HepG2
  cytotoxicity call: inactive
S. aureus RN4220
  growth inhibition call: inactive

## CCN(Cc1cc(C(F)(F)F)ccc1-c1cc(CC(=O)O)ccc1OC)C(=O)NCc1ccccc1
HSkMC
  cytotoxicity call: inactive
HepG2
  cytotoxicity call: inactive
S. aureus RN4220
  growth inhibition call: inactive

## C[C@H](CO)N1C[C@H](C)[C@H](CN(C)C(=O)Nc2ccc(N3CCN(C)CC3)cc2)OCc2cn(nn2)CCCC1=O
HSkMC
  cytotoxicity call: inactive
HepG2
  cytotoxicity call: inactive
S. aureus RN4220
  growth inhibition call: inactive

## C[C@H](CO)N1C[C@H](C)[C@@H](CN(C)Cc2ccc(Cl)c(Cl)c2)OCCCC[C@H](C)Oc2ccc(NC(=O)c3ccncc3)cc2C1=O
HSkMC
  cytotoxicity call: inactive
HepG2
  cytotoxicity call: inactive
S. aureus RN4220
  growth inhibition call: inactive

## NC(CSSCC(N)C(=O)O)C(=O)O (configuration not stated)
HSkMC
  cytotoxicity call: inactive
HepG2
  cytotoxicity call: inactive
S. aureus RN4220
  growth inhibition call: inactive

## C[C@@H]1CN([C@@H](C)CO)C(=O)c2cc(NC(=O)Nc3ccc(C(F)(F)F)cc3)ccc2O[C@@H]1CN(C)Cc1ccc(C(=O)Nc2ccccc2N)cc1
HSkMC
  cytotoxicity call: inactive
HepG2
  cytotoxicity call: active
S. aureus RN4220
  growth inhibition call: inactive

## C[C@@H]1CCn2cc(nn2)COC[C@H](Cc2ccccc2)NC(=O)[C@H](C)CCn2cc(nn2)COC[C@H](Cc2ccccc2)NC1=O
HSkMC
  cytotoxicity call: inactive
HepG2
  cytotoxicity call: inactive
S. aureus RN4220
  growth inhibition call: inactive

## C[C@@H]1CN([C@@H](C)CO)C(=O)c2cc(NC(=O)Cc3ccccc3)ccc2O[C@@H](C)CCCCO[C@H]1CN(C)C(=O)C1CCCCC1
HSkMC
  cytotoxicity call: inactive
HepG2
  cytotoxicity call: inactive
S. aureus RN4220
  growth inhibition call: inactive

## C[C@H](CO)N1C[C@H](C)[C@@H](CN(C)Cc2ccncc2)Oc2ccc(NS(=O)(=O)c3ccc(F)cc3)cc2C1=O
HSkMC
  cytotoxicity call: inactive
HepG2
  cytotoxicity call: inactive
S. aureus RN4220
  growth inhibition call: inactive

## Cn1cc(CO)cn1
HSkMC
  cytotoxicity call: inactive
HepG2
  cytotoxicity call: inactive
S. aureus RN4220
  growth inhibition call: inactive

## Cc1ccc(S(=O)(=O)N2C[C@H](O)COC[C@H]3O[C@@H](CC(=O)NCc4ccc(Cl)c(Cl)c4)CC[C@@H]32)cc1
HSkMC
  cytotoxicity call: inactive
HepG2
  cytotoxicity call: active
S. aureus RN4220
  growth inhibition call: inactive

## CCCC(=O)Nc1ccc2c(c1)C(=O)N(C)[C@@H]1CC[C@@H](CC(=O)NCCN3CCCCC3)O[C@H]1CO2
HSkMC
  cytotoxicity call: inactive
HepG2
  cytotoxicity call: inactive
S. aureus RN4220
  growth inhibition call: inactive

## C[C@H](CO)N1C[C@H](C)[C@@H](CN(C)Cc2ccc(Cl)c(Cl)c2)Oc2c(NC(=O)Nc3ccc4c(c3)OCO4)cccc2C1=O
HSkMC
  cytotoxicity call: active
HepG2
  cytotoxicity call: inactive
S. aureus RN4220
  growth inhibition call: inactive

## C[C@@H]1CN([C@@H](C)CO)S(=O)(=O)c2ccc(-c3ccc(C(=O)N(C)C)cc3)cc2O[C@@H]1CN(C)C(=O)Cc1ccccn1
HSkMC
  cytotoxicity call: inactive
HepG2
  cytotoxicity call: inactive
S. aureus RN4220
  growth inhibition call: inactive

## C[C@@H]1CN([C@@H](C)CO)C(=O)Cc2cc(NC(=O)C3CC3)ccc2O[C@H]1CN(C)C(=O)Nc1ccccc1
HSkMC
  cytotoxicity call: inactive
HepG2
  cytotoxicity call: inactive
S. aureus RN4220
  growth inhibition call: inactive

## COC(=O)[C@H]1[C@H](CO)[C@H]2Cn3c(cccc3=O)[C@H]2N1C(=O)C1CC1
HSkMC
  cytotoxicity call: inactive
HepG2
  cytotoxicity call: inactive
S. aureus RN4220
  growth inhibition call: inactive

## C[C@H](CO)N1C[C@H](C)[C@@H](CN(C)C)Oc2ccc(NC(=O)Cc3cn(C)c4ccccc34)cc2CC1=O
HSkMC
  cytotoxicity call: inactive
HepG2
  cytotoxicity call: inactive
S. aureus RN4220
  growth inhibition call: inactive

## CCCNC(=O)N(C)C[C@@H]1Oc2cc(-c3ccc(C)cc3)ccc2S(=O)(=O)N([C@H](C)CO)C[C@H]1C
HSkMC
  cytotoxicity call: inactive
HepG2
  cytotoxicity call: inactive
S. aureus RN4220
  growth inhibition call: inactive
